Results: PubChem BioAssay AID1645882 (National Center for Advancing Translational Sciences (NCATS), 2021)
Hit rate of the full screen: of about 16,000 compounds, about 120 (0.75%) were called active. Another 4% or so got no clear call; they are omitted. The call rests on the fitted dose curve; in most records, active means well fitted inhibition curve with a large enough effect; inconclusive means small, poorly fitted or top-dose-only effect; inactive means no such curve, though single readings can be large or run the other way. This is one part of the list. Where a SMILES comes first, the peptide text is derived from it. [ ]: non-standard residue; d: D form. Sar = CNCC(=O)O

Molecular target: Rap guanine nucleotide exchange factor 3 (Homo sapiens) (UniProt O95398)
Sequence of UniProt O95398 (O95398 whole entry, looked up): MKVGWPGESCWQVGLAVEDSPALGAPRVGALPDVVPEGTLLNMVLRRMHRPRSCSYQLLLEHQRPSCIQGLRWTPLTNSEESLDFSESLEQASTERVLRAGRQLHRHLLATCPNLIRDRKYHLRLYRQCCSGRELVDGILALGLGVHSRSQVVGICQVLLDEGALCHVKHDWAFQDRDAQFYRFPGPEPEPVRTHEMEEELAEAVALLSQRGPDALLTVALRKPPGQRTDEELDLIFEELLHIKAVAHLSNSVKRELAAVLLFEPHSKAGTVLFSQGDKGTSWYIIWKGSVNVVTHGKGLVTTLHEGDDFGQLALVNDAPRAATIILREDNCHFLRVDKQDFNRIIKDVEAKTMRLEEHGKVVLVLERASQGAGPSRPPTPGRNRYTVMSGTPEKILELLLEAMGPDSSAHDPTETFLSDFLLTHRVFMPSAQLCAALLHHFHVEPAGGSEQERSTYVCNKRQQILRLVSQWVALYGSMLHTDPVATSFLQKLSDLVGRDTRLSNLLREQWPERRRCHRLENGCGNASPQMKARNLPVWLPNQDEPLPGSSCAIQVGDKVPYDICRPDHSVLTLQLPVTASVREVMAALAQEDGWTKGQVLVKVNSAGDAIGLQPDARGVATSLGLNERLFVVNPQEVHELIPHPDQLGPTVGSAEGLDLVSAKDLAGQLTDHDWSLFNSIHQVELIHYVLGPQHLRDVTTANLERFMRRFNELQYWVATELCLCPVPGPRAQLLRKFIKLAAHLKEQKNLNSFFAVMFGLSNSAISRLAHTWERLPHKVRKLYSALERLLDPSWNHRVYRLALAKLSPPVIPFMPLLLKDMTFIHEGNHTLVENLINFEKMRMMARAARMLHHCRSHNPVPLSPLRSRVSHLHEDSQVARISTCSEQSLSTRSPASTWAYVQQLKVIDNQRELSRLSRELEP
Test: Validation qHTS for antagonist of cAMP-regulated guanine nucleotide exchange factor 3 (EPAC1);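 further: plate controls were DMSO for no effect and ATA control for full effect; nearly all actives have a fitted effect of over 75% in size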
Details: EPAC1 Rap1B-BODIPY-GDP exchange, fluorescence; series mostly up to 150 µM; activity change, negative = inhibition: at the top concentration
Outline: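 Nucleotide exchange followed as fluorescence loss when BODIPY-GDP leaves Rap1B (480 nm excitation, 540 nm emission), read at 5 min intervals over 30 min. Reaction: 100 nM EPAC1, 250 nM RAP1B-BODIPY-GDP, 50 uM GDP; ATA and DMSO define normalization.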

Activity change, negative = inhibition, inactive:
Cc1noc(C)c1C(=O)N1CCC2(CC1)CCN(c1ccncc1)CC2 24.6%, CCCN1CCC(=O)N([C@H](COc2ccccc2)CC(C)C)CC1 10.8%, CC(C)(C)C(=O)NCCCC(=O)O 12.3%, O=c1c(-c2cccs2)nc2cnc(Oc3cccc(Cl)c3)nc2n1C[C@H]1CCCO1 10.6%, FC(F)(F)c1ccccc1-c1ccc2ncnc(NC3CCNCC3)c2c1 18.9%, N#C/C(=C\c1ccc(O)c(O)c1)C(=O)c1ccc(O)c(O)c1 -6.35% [at 75.8 µM], CCCCCC(CC(=O)O)C(=O)O (centres undefined) 14.8%, COc1cc(NS(=O)(=O)c2ccc(N)cc2)nc(C)n1 34.1%, CO[C@H]1[C@H](NC(=O)c2ccsc2)c2ccccc2C12CCN(Cc1c(O)ccc3ccccc13)CC2 7.42%, CO[C@H]1O[C@@H]2O[C@@]3(C)CC[C@H]4[C@H](C)CC[C@@H]([C@H]1C)[C@@]24OO3 15.8%, Cc1ccc(C(=O)Nc2cccc(-c3nc(CNC(=O)c4cccc(C)c4C)c(C)o3)c2)s1 0.382%, O=c1c2ccccc2oc2ccccc12 10.4%, CN(C)c1ncc2nc(-c3ccc(Cl)cc3)c(=O)n(-c3ccccc3)c2n1 1.73%, COc1ccc(-c2nc3cnc(OCc4ccccc4)nc3n(CCC#N)c2=O)cc1 19%, COC(=O)[C@@H]1CCCN1C(=O)c1c(OC)cc(=O)n2c1CCN(Cc1ccc3nsnc3c1)CC2 11.9%, CCOC(=O)N1CCN(Cc2ccc3c(c2)CN(C(=O)c2cc(-c4ccccc4)no2)CCO3)CC1 -13.5%, CC(=O)N1CCC2(CC1)CN(c1ccccn1)C2 4.69%, CC(=O)N1CCC2(CCCN(Cc3cc(C(F)(F)F)cc(C(F)(F)F)c3)C2)CC1 14.3%, O=C1CCN(Cc2ccc(Br)cc2)CCN1[C@H](CO)Cc1ccccc1 -0.993%, Cc1cc(=O)n(-c2ccccc2)n1C, Cc1csc[n+]1CC(=O)c1ccccc1 -15.5%, CN(C)c1cccc(C(=O)NCC2Cc3cccc(-c4cncnc4)c3O2)c1 (centres undefined) 7.98%, Cc1nc2cc(NC(=O)[C@@H]3C[C@@H](Sc4ccccn4)CN3C3CCCCCC3)ccc2s1 5.2%, CCCN(CCc1cccs1)[C@H]1CCc2c(O)cccc2C1 -0.592%, COC(=O)[C@H]1[C@@H]2C[C@H]3c4[nH]c5ccccc5c4CCN3C[C@@H]2CC[C@@H]1O 2.47%, COc1ccc2[nH]cc(CCNc3nc(-c4cccc(C#N)c4)nc4ccccc34)c2c1 -16.7%, COc1ccc(SC[C@H](C)CN2CC[C@H](O)CCC2=O)cc1 9.89%, CC1CCc2c(N3CCC(O)CC3)c(F)cc3c(=O)c(C(=O)O)cn1c23 (centres undefined) 0.539%, Cn1cccc1C(=O)N1CCC2(CC1)CCN(c1ccccn1)CC2 14.4%, CC(=O)c1ccc(F)c(-c2cc(C)cc3c2OC(CNC(=O)c2cnc4ccccn4c2=O)C3)c1 (centres undefined) -11.2%, CC1(C2CCN(Cc3c[nH]c4ccccc34)CC2)NC(=O)N(CCN2CCOCC2)C1=O (centres undefined) 19.3%, CNCC(=O)NCC(=O)N[C@@H](Cc1ccccc1)C(=O)N[C@@H](CC(C)C)C(=O)O (H-[Sar]GFL-OH) 0.318% [at 15.3 µM], CC(C)[C@@H]1CC[C@@H](C)C[C@@H]1P(=O)(c1ccccc1)c1ccccc1 -11.1% [at 75.8 µM], CC(C)C(N)C(=O)NC(Cc1c[nH]c2ccccc12)C(=O)O (centres undefined) 18.5%, CC1(C)CCC[C@@]2(C)C1CC[C@@](C)(O)[C@@H]2CC[C@@](C)(O)C1CO1 (some centres undefined) -17.4%, Cc1ccc(-c2ncc(Cl)cc2-c2ccc(S(C)(=O)=O)cc2)cn1 11.2%, O=c1c(O)c(-c2ccc(O)cc2)oc2ccc(O)cc12 2.45%, CN(C)c1ccc(/C=C/c2ccnc3c(Cl)cccc23)cc1 -3.36%, CC1CCC(C(C)[C@H]2CCC3C4CC(=O)C5C[C@@H](O)CC[C@]5(C)C4CC[C@@]32C)=NC1 (some centres undefined) 2.85%, NCC(=O)O 24.4%, Cc1c(CN2CCOc3c(cc(-c4ncc(C(F)(F)F)cc4Cl)cc3OCC3CCCO3)C2)cnn1C (centres undefined) 11.6%, COCC(=O)N1CCC[C@@]2(CCN(Cc3ccccc3)C2)C1 13.8%, COc1ccc(-c2coc3cc(OC4OC(CO)C(O)C(O)C4O)cc(O)c3c2=O)cc1 (centres undefined) 15.4%, COc1cc2c(cc1OC)[C@H](C)N(CC1C(=O)O[C@@H]3C[C@@]4(C)CCC[C@H](C)[C@@]45OC5[C@H]13)CC2 (some centres undefined) -13.9%, C[C@H]1CN(Cc2ccccc2)C(=O)[C@@H]1CC(=O)NCc1ccccc1 10.5%, O=C1CCC[C@@H]2Cc3nc4ccc(Cl)cc4cc3[C@@H]3CCN1[C@H]23 3.03%, O=c1cc(-c2cccc(O)c2)oc2cccc(O)c12 11.1%, COc1cccc(CN2CCC3(CC2)c2ccccc2[C@@H](NC(=O)c2ccccc2)[C@@H]3O)c1O 7.85%, O=C(O)c1ccccc1Nc1ccccc1, Nc1ncnc(Nc2ccc(Cl)cc2)n1 25.4%, COc1c(O)cc2c(-c3ccccc3)cc(=O)oc2c1OC 2.42%, N=c1ccn2c(n1)O[C@@H]1[C@H](O)[C@H](CO)O[C@@H]12 9.24%, COc1cccc(CNC(=O)c2c(OC)cc(=O)n3c2CCN(C(=O)c2ccc(C)cc2C)CC3)c1 2.41%, C[C@@H]1[C@H](c2ccccc2)OCCS(=O)(=O)N1Cc1ccccc1Br -15.5%, CC(=O)Nc1ccc(S[C@@H](CCN2CC[C@H](C(C)(C)C)CCC2=O)c2ccccc2)cc1 -13.6%, CSc1nccc(-c2cc(Cl)c3c(c2)CC(CNC(=O)c2nonc2C)O3)n1 (centres undefined) 11.2%, CCc1nnc(NS(=O)(=O)c2ccc(N)cc2)s1 -3.15%, CCNc1ncc2nc(-c3cn(C)c4ccccc34)c(=O)n(C[C@H]3CCCO3)c2n1 12.1%, O=c1cnc2cnc(Oc3cccc(Cl)c3)nc2n1C1CC1 6.23%, Cc1ccccc1C1(CC(=O)N2CCCC(C)C2)CC(=O)N(Cc2cccnc2)C1=O (centres undefined) 8.32%, N#Cc1ccccc1-c1ccc2ncnc(N3CCNCC3)c2c1 1.58%, O=C(O)c1cccc(/C=C2/C[C@@H]3[C@@H](/C=C/[C@@H](O)C4CCCCC4)[C@H](O)C[C@@H]3O2)c1 9.6%, C=CC[C@H](N)C(=O)O -12.7% [at 75.8 µM], CC(C)NC(=O)N1CCC2(CC1)CCN(C(=O)c1cnccn1)CC2 1.66%
